# Source: PubChem BioAssay AID485294 (National Center for Advancing Translational Sciences (NCATS), 2010)
# About 150 (0.041%) of roughly 370,000 compounds were called active. Inconclusive results, whose numbers are uncertain, are shown with a selection of clear calls. The call rests on the fitted dose curve; in most records, active means well fitted inhibition curve with a large enough effect; inconclusive means small, poorly fitted or top-dose-only effect; inactive means flat fitted curve, though single readings scatter. No potency is given beside an inconclusive call; the fits are too rough.
# Biological target: Beta-lactamase (Escherichia coli (strain K12)) (UniProt P00811)
# UniProt P00811, sequence (P00811 whole entry, looked up): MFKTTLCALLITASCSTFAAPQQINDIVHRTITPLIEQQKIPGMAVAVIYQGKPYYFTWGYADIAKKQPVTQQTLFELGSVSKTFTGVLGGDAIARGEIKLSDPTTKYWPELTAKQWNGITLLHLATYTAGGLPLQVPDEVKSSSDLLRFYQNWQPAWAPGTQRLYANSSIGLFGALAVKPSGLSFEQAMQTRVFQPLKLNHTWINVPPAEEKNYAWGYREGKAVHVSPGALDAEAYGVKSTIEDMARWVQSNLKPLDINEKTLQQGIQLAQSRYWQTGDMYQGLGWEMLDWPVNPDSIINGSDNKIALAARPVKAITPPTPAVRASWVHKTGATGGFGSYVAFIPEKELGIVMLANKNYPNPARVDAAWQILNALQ
# Assay: qHTS Inhibitors of AmpC Beta-Lactamase (assay with detergent); further: nearly all actives have a fitted effect of over 25% in size
# Settings: AmpC hydrolysis of nitrocefin, absorbance 480 nm, 0.01% Triton; series mostly up to 114 µM
# Procedure, shortened: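 AmpC (5.3 nM in the dispensed reagent) in 20 mM phosphate pH 7.0 with 0.01% (detergent screen) or 0.0001% Triton X-100 was preincubated with compounds for 15 min at room temperature. Nitrocefin was then added from an 800 uM solution, and hydrolysis was followed at 480 nm.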
# Potency means the concentration at half of the fitted maximal effect; tags describe the fitted curve by direction and shape.
row,Structure (SMILES),Potency
1,Cn1c(=O)[nH]c(=O)c2c1nc(SCc1ccccc1Cl)n2CC(N)=O,"inconclusive [inhibitor, full curve, poor fit]"
2,CCCCN(CCCC)C(=O)CSc1nnc2n(C)c(=O)c3c4c(sc3n12)CCCC4,inactive
3,COC(=O)CCC/C=C1/SCC(NC(=O)c2ccccc2)C1=O (stereo not given),inactive
4,CCc1c(C)nc2ncnn2c1N1CCC(C(=O)Nc2cccc(C(C)=O)c2)CC1,"inconclusive [inhibitor, partial curve, poor fit]"
5,Cc1no[n+]([O-])c1COc1ccccc1/C=N/n1nnnc1N,"inconclusive [inhibitor, full curve, poor fit]"
6,O=C(Nc1ccc2c(c1)OCO2)c1cc2n(n1)C(C(F)(F)F)CC(c1ccccc1)N2 (stereo not given),"inconclusive [inhibitor, full curve, poor fit]"
7,CCOC(=O)CN1CC23C=CC(O2)C(C(=O)Nc2ccc(OCC)cc2)C3C1=O (stereo not given),"inconclusive [inhibitor, full curve, poor fit]"
8,Clc1ccc(CON/C=N/c2ncnc3sccc23)c(Cl)c1,"inconclusive [inhibitor, full curve, poor fit]"
9,COc1ccc(CCNC(=O)/C(C#N)=C/c2ccc(OCC(=O)NCC3CCCO3)cc2)cc1OC (stereo not given),inactive
10,C=C(C)CSc1nc2c(cc1C#N)CCC2,"inconclusive [inhibitor, full curve, poor fit]"
11,O=C(NNC(=O)c1cc(Br)c(Br)s1)c1csc(N2CCOCC2)n1,"inconclusive [inhibitor, full curve, poor fit]"
12,CCOC(=O)C1=C(N)N(c2ccc(C)cc2)C2=C(C(=O)CCC2)C1c1cccs1 (stereo not given),"inconclusive [inhibitor, full curve, poor fit]"
13,CC(=O)c1c(C)nc(-c2cccc([N+](=O)[O-])c2)n1O,"inconclusive [inhibitor, full curve, poor fit]"
14,O=C(Cc1ccc(F)cc1)N1CCN=C1SCc1cccc([N+](=O)[O-])c1,"inconclusive [inhibitor, full curve, poor fit]"
15,C/C(CCN1CCCCc2nc(C)c(C)cc21)=N\O[C@H](C)c1cn([C@H](CO)Cc2ccccc2)nn1,"inconclusive [inhibitor, partial curve]"
16,COCCCN1C(=O)C(O)=C(C(=O)c2ccco2)C1c1ccccc1 (stereo not given),"inconclusive [inhibitor, full curve, poor fit]"
17,CCOC(=O)Cc1c(C)nc2c(-c3cccc(Br)c3)c[nH]n2c1=O,"inconclusive [inhibitor, full curve, poor fit]"
18,C/C(=N\Nc1ccccc1C(=O)O)c1ccncc1,inactive
19,Cc1cc(C(=O)NC(C)CCC(C)C)c2ccccc2n1 (stereo not given),inactive
20,Cc1cc(CN2CCN(c3ccc(F)cc3)CC2)cs1,inactive
21,O=c1ccn(CCOc2ccc(Cl)cc2)c(=O)[nH]1,"inconclusive [inhibitor, partial curve, poor fit]"
22,O=C(c1ccc2c(c1)OCO2)N(Cc1cccs1)C1(C(=O)NC2CCCCC2)CCCCC1,inactive

row,Structure (SMILES),Potency
1,O=C(NN/C(=N/S(=O)(=O)c1ccc(Cl)cc1)c1ccccc1)c1cccc(Cl)c1,"inconclusive [inhibitor, single point]"
2,Cc1cc(Br)cc2c(C(=O)OCC(=O)c3ccccc3)cc(-c3ccccc3)nc12,inactive
3,Cc1cc(C(=O)COC(=O)[C@H](C)NC(=O)c2ccco2)c(C)n1Cc1ccco1,inactive
4,CS(=O)(=O)c1ccc(NC(=O)CCCc2nc3ccccc3c(=O)[nH]2)cc1,"inconclusive [inhibitor, partial curve, poor fit]"
5,C#CCSc1nnc(-c2ccc(C)cc2)o1,"inconclusive [inhibitor, partial curve, poor fit]"
6,COCCN(CCOC)C(=O)Nc1ccc(Cl)cc1,"inconclusive [inhibitor, full curve, poor fit]"
7,CC(=O)c1ccc(NC(=O)C[n+]2ccccc2)cc1,"inconclusive [inhibitor, full curve, poor fit]"
8,COc1cccc(/C=N/N2CCN(C3c4ccccc4-c4ccccc43)CC2)c1O,inactive
9,CC(C)(C)[C@H]1CCC(=O)N([C@H](CN=[N+]=[N-])Cc2ccccc2)CC1,"inconclusive [inhibitor, full curve, poor fit]"
10,COC(=O)c1ccc([C@H]2Nc3ccc(S(=O)(=O)Nc4cccc(C)c4)cc3[C@H]3C=CC[C@H]32)cc1,"inconclusive [inhibitor, single point]"
11,Cc1nn(-c2ccccc2)c(C)c1NC(=O)COC(=O)c1cccc(OC(F)F)c1,"inconclusive [inhibitor, partial curve]"
12,CCOC(=O)c1c(C)[nH]c(C)c1S(=O)(=O)NC(CC)CN1CCOCC1 (stereo not given),"inconclusive [inhibitor, full curve, poor fit]"
13,CCOC(=O)C(C)Sc1cc(CS(=O)(=O)c2ccccc2)nc(-c2ccccc2)n1 (stereo not given),"inconclusive [inhibitor, single point]"
14,Cc1n[nH]c(=O)c2c(NC(=O)CSc3nc4ccccc4c(=O)n3C(C)C)oc(C)c12,inactive
15,CC1CCN(CCOc2ccccc2-c2ccccc2)CC1,"inconclusive [inhibitor, partial curve, poor fit]"
16,CC(CCc1ccccc1)NC(=O)CN1C(=O)NC2(CCCCC2)C1=O (stereo not given),"inconclusive [inhibitor, full curve, poor fit]"
17,CC(OC(=O)Cc1n[nH]c(=O)c2ccccc12)C(=O)Nc1ccc(Cl)cn1 (stereo not given),"inconclusive [inhibitor, full curve, poor fit]"
18,CCOC(=O)c1c(C)[nH]c(C(=O)OC(C)C(=O)NCc2ccccc2)c1C (stereo not given),"inconclusive [inhibitor, partial curve, poor fit]"
19,CSc1ncccc1C(=O)OCC(=O)NC(C)(C)C,"inconclusive [inhibitor, single point]"
20,CCn1c(CCCNC(=O)c2ccc(F)cc2)nc2ccccc21,"inconclusive [inhibitor, partial curve, poor fit]"
21,CCOc1ccccc1N=C1SCCCN1C,"inconclusive [inhibitor, partial curve, poor fit]"
22,O=[N+]([O-])c1ccc(COc2cccc(CNc3ccc(Br)cc3)c2)cc1,inactive

row,Structure (SMILES),Potency
1,CCNc1nc(NC(C)(C)C)nc(SC(C(C)=O)C(C)=O)n1,"inconclusive [inhibitor, full curve, poor fit]"
2,COc1ccc(-c2csc(N3CCSCC3)n2)cc1,inactive
3,O=C(CSc1nnc(Cn2cnc3ccccc32)o1)Nc1cccc2ccccc12,"inconclusive [inhibitor, full curve, poor fit]"
4,COc1ccc2c3c(c(=O)oc2c1)C1O[C@](CCCCN2C(=O)c4ccccc4C2=O)(Cc2cc(OC)c(OC)cc21)O3,"inconclusive [inhibitor, partial curve]"
5,Cn1[nH]c(C(F)(F)F)c(C=NCc2ccc(Cl)cc2)c1=O,"inconclusive [inhibitor, single point]"
6,CCOc1ccc(OCC)c(Nc2cc(C)nc3ncnn23)c1,"inconclusive [inhibitor, full curve, poor fit]"
7,COc1ccc(-c2cc(C(=O)N(C)CC(=O)Nc3cccc(F)c3)c3ccccc3n2)cc1,"inconclusive [inhibitor, full curve, poor fit]"
8,O=C(O)CSC1CC(=O)N(c2cccc(Cl)c2)C1=O (stereo not given),"inconclusive [inhibitor, full curve]"
9,O=C(Cn1nnc(-c2ccccc2NC(=O)C2CC2)n1)NC1CCCCC1,"inconclusive [inhibitor, full curve]"
10,CC(=O)Nc1ccc(S(=O)(=O)N(C)S(=O)(=O)c2ccc(F)cc2)cc1,"inconclusive [inhibitor, partial curve, poor fit]"
11,Clc1ccc(-c2nc3cnccn3c2NC2CCCC2)cc1,"inconclusive [inhibitor, partial curve]"
12,CC(C)N(C(=O)Cn1c(=O)oc2ccccc21)c1ccccc1,"inconclusive [inhibitor, partial curve, poor fit]"
13,CCc1nnc(NC(=O)c2ccc(S(=O)(=O)N3CCOCC3)cc2)s1,"inconclusive [inhibitor, full curve]"
14,O=C(c1cccc2cccc(O)c12)N1CCCCC1,"inconclusive [inhibitor, partial curve]"
15,Cc1ccc(C)n1-c1cccc(C(=O)Nc2ccccc2)c1,inactive
16,CCn1c(SCC(=O)NC2CCCCC2)nnc1-c1ccco1,"inconclusive [inhibitor, full curve, poor fit]"
17,O=C(NC1CCCCC1)c1ccc(COCC(F)(F)F)o1,inactive
18,CCNC(=O)C1CC(=O)N(c2ccc(OCC)cc2)C1 (stereo not given),"inconclusive [inhibitor, partial curve, poor fit]"
19,CCCCNS(=O)(=O)c1cc(-c2nn(C)c(=O)c3ccccc23)ccc1C,inactive
20,N#Cc1cn(N2CCCCC2)c(=O)[nH]c1=O,inactive
21,O=C(Nc1ccc(O)cc1)/C(=C\C=C\c1ccccc1)NC(=O)c1ccccc1,inactive
